Experimental data taken from patent publication US7875638B2, “Synthesis of epothilones, intermediates thereto, analogues and uses thereof” (Sloan-Kettering Institute for Cancer Research, priority 2002, dated 2011).
Structures can show the parent of a compound that is named as a salt. Where two headings read alike, the source gives them in different places.

Test system: CCRF-CEM/VBL100
Experiment: cells
Protocol: FIG. 1 is a table of IC50 values of epothilones against CCRF-CEM, CCRF-CEM/VBL, and CCRF-CEM/Taxol cell growth. Cell growth inhibition was measured by XTT tetrazonium assay after 72-hour incubation for cell growth, as described previously (Scudiero et al. Cancer Res. 46:4827-4833, 1988; incorporated herein by reference). IC50 values were determined from dose-effect relationship at six or seven concentrations of each drug, by using a computer program (Chou et al. Adv. Enzyme Regul. 22:27-55, 1984; Chou et al. CalcuSyn for Windows (Biosoft, Cambridge, UK), 1997; each of which is incorporated herein by reference) as described earlier (Chou et al. Proc. Natl. Acad. Sci. USA 95:15798-15802, 1998; incorporated herein by reference).
A typical experiment involves culturing cells (e.g., CCRF-CEM) at an initial density of 2-5×10^4 cells per ml. […] For both methods, the absorbance of each well is measured with a microplate reader (EL-340, Bio-Tek, Burlington, Vt.). Each run entails six or seven concentrations of the tested drugs. Dose-effect relationship data are analyzed with the median-effect plot.

[1] = Homo sapiens, CCRF-CEM, 72 h, read-out: IC50, C/VBL100 (μM)
[2] = Homo sapiens, CCRF-CEM, 72 h, read-out: IC50 (μM), CCRF-CEM/VBL100
[3] = Homo sapiens, CCRF-CEM, 72 h, read-out: IC50, CCRF-CEM/VBL
[4] = CCRF-CEM/VBL and CCRF-CEM/Taxol sublines (FIG. 94)
[5] = read-out: CCRF-CEM/VBL (IC50 (μM)), XTT assay following 72 h inhibition, Table 1-1

C/C(=C\c1csc(C)n1)[C@@H]1C/C=C(/C(F)(F)F)CCC[C@H](C)[C@H](O)[C@@H](C)C(=O)C(C)(C)[C@@H](O)CC(=O)O1 [Compound 2, 26-trifluoro-12,13-desoxyepothilone B]
IC50 [1]: 0.08 µM

C/C1=C/CC(/C(C)=C/c2csc(C)n2)OC(=O)C[C@H](O)C(C)(C)C(=O)[C@H](C)[C@@H](O)[C@@H](C)CCC1 (some centres unmarked) [Compound 1, 12,13-desoxyepothilone B, reference compound]
IC50 [2]: 0.014 µM
IC50 [1]: 0.016 µM
IC50 [3]: 0.016 µM

C/C(=C\c1csc(C)n1)[C@@H]1C[C@@H]2O[C@]2(C)CCC[C@H](C)[C@H](O)[C@@H](C)C(=O)C(C)(C)[C@@H](O)CC(=O)N1 [Compound 15-aza-EpoB, reference compound]
Cross-resistance to vinblastine and paclitaxel [4]: considerable cross-resistance

C/C1=C/C[C@@H](/C(C)=C/c2csc(CO)n2)OC(=O)C[C@H](O)C(C)(C)C(=O)[C@H](C)[C@@H](O)[C@@H](C)CCC1 [dEpoF, reference compound]
Cross-resistance to vinblastine and paclitaxel [4]: some cross-resistance with vinblastine but not paclitaxel

C/C(=C\c1csc(C)n1)[C@@H]1C/C=C(/C(F)(F)F)C/C=C/[C@H](C)[C@H](O)[C@@H](C)C(=O)C(C)(C)[C@@H](O)CC(=O)O1 [Compound 29, 26-trifluoro-trans-9,10-dehydro-12,13-desoxyepothilone B]
Cross-resistance to vinblastine and paclitaxel: not appreciably cross-resistant
IC50 [2]: 0.021 µM
IC50 [1]: 0.021 µM

C/C(=C\c1csc(C)n1)[C@@H]1C[C@H]2O[C@@]2(C)CCC[C@H](C)[C@H](O)[C@@H](C)C(=O)C(C)(C)[C@@H](O)CC(=O)O1 [Compound 52]
IC50 [3]: 0.452 µM

C/C1=C/C[C@@H](/C(C)=C/c2csc(C)n2)OC(=O)C[C@H](O)C(C)(C)C(=O)[C@H](C)[C@@H](O)[C@@H](C)/C=C/C1 [Compound 28, trans-9,10-dehydro-12,13-desoxyepothilone B]
Cross-resistance to vinblastine and paclitaxel [4]: not appreciably cross-resistant
IC50 [2]: 0.0065 µM
IC50 [1]: 0.0042 µM
IC50 [3]: 0.0042 µM

CC[C@]1(O)C[C@@H]2CN(CCc3c([nH]c4ccccc34)[C@@](C(=O)OC)(c3cc4c(cc3OC)N(C)[C@H]3[C@@](O)(C(=O)OC)[C@H](OC(C)=O)[C@]5(CC)C=CCN6CC[C@]43[C@@H]65)C2)C1 [vinblastine, vinblastine sulfate, reference compound]
Resistance of CCRF-CEM/VBL100 subline: 720 fold

CC1=C/C[C@@H](/C(C)=C/c2csc(C)n2)OC(=O)C[C@H](O)C(C)(C)C(=O)[C@H](C)[C@@H](O)[C@@H](C)C\C=C\1 [Compound 6, epothilone 490, reference compound]
IC50 (Homo sapiens, CCRF-CEM, 72 h, read-out: CCRF-CEM/VBL (IC50 (μM))): 0.068 µM

C/C(=C\c1csc(C)n1)[C@@H]1C/C=C(/C(F)(F)F)C/C=C/C[C@H](C)[C@H](O)[C@@H](C)C(=O)C(C)(C)[C@@H](O)CC(=O)O1 [Compound 19, 27-F3-[17]ddEpoB]
IC50 [5]: 0.191 µM

C/C(=C\c1csc(C)n1)[C@@H]1C[C@H]2O[C@@]2(C)C/C=C/[C@H](C)[C@H](O)[C@@H](C)C(=O)C(C)(C)[C@@H](O)CC(=O)O1 [Compound 50]
IC50 [3]: 0.0959 µM

[17]ddEpoB [Compound 23, reference compound]
IC50 [5]: 0.126 µM

C/C(=C\c1csc(C)n1)[C@@H]1C[C@@H]2O[C@]2(C)CCC[C@H](C)[C@H](O)[C@@H](C)C(=O)C(C)(C)[C@@H](O)CC(=O)O1 [Compound 51, Epothilone B, reference compound]
IC50 [3]: 0.0037 µM

C/C1=C/C[C@@H](/C(C)=C/c2csc(CO)n2)OC(=O)C[C@H](O)C(C)(C)C(=O)[C@H](C)[C@@H](O)[C@@H](C)/C=C/C1 [Compound 57, 9,10-dehydro-dEpoF]
IC50 [2]: 0.0106 µM

C/C(=C\c1csc(C)n1)[C@@H]1C[C@@H]2O[C@]2(C)C/C=C/[C@H](C)[C@H](O)[C@@H](C)C(=O)C(C)(C)[C@@H](O)CC(=O)O1 [Compound 49, (E)-9,10-dehydroepothilone B]
Cross-resistance to vinblastine and paclitaxel [4]: not appreciably cross-resistant
IC50 [3]: 0.00032 µM
